The source of these data is patent publication US11034759B2, “Humanized M-CSF specific monoclonal antibodies, kits, and uses thereof” (NOVARTIS VACCINES AND DIAGNOSTICS, INC., priority 2004, dated 2021).

Assay [1] addresses T1, MCSF (Homo sapiens, UniProt P09603).
T1 sequence (P09603 33-255 limits assumed): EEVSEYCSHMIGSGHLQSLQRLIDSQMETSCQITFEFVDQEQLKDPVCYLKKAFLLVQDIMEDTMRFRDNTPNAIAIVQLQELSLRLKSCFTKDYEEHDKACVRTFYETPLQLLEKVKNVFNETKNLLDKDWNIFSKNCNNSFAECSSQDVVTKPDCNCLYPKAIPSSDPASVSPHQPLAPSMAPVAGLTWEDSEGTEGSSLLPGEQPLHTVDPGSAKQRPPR
As to the kind of experiment: Biacore analysis, M-CSF immobilized, intact Mab or Fab flowed over (Example 11). In kind it is binding. The note with it: Table 9, 25° C., 1:1 interaction model. The protocol:
Specifically, M-CSF was immobilized onto CMS biosensor chip via amine coupling. 0.05 μg/ml M-CSF in 10 mM Na Acetate pH 4.0 was injected at 1 μl/min for 5 minutes to achieve RL=6-12 RU. Test antibody (or Fab fragment) were flowed over the modified biosensor surface at varying concentrations. Test antibodies were diluted in 0.01 M HEPES pH 7.4, 0.15 M NaCL, 3 mM EDTA, 0.005% Surfactant P20 (HBS-EP) and all experiments were done at 25° C. Kinetic and affinity constants were determined using Biaevaluation software (Biacore) with a 1:1 interaction model/global fit.

Assay [2] has as its target T1, MCSF. Kind of assay: M-CSF-dependent cell proliferation, intact antibody versus Fab fragments. In kind it is cell-based. The note with it: chemiluminescent dye. As for the experimental part:
The cell proliferation was determined by chemiluminescent dye.

B1: rRX1 Fab (mouse): Fab fragment of RX1 (antibody, V domains shown)
VH: DVQLQESGPGLVKPSQSLSLTCTVTDYSITSDYAWNWIRQFPGNKLEWMGYISYSGSTSYNPSLKSRISITRDTSKNQFFLQLNSVTTEDTATYYCASFDYAHAMDYWGQGTSVTVSS
VL: DILLTQSPAILSVSPGERVSFS[about 80 residues cut from this listing]FGGGTKLEIKRA
Take B1: in the assay with MCSF [1], the “Ka” value came out at 281000 M⁻¹ s⁻¹ and the “Kd” value turned out to be 0.00303 s⁻¹. The “Neutralization potency, intact versus Fab” value in the assay with MCSF [2] is “loses its potency”.

B2: rRX1(mouse): recombinant murine RX1 antibody (antibody, V domains shown)
VH: B1 VH
VL: DILLTQSPAILSVSPGERVSFS[about 80 residues cut from this listing]FGGGTKLEIKRA
On to B2, for which, in the assay with MCSF [1], the “Ka” value stood at 234000 M⁻¹ s⁻¹ and the “Kd” value came out at 0.000235 s⁻¹.
